Results as given in the RNAGym collection of RNA variant scans (doi:10.1073/pnas.2313332121).
This sample is rich in variants without activity.

B1: TPR 5TU (parent)
chain: GGAUCUUCUCGAUCUAACAAAAAAGACAAAUCUGCCACAAAGCUUGAGAGCAUCUUCGGAUGCAGAGGCGGCAGCCUUCGGUGGCGCGAUAGCGCCAACGUUCUCAACUAUGACACGCAAAACGCGUGCUCCGUUGAAUGGAGUUUAUCAUG

Variants of: B1
Assay: polymerase ribozyme fitness, log enrichment relative to wild type (log ratio); higher = more active; in vitro selection for triplet polymerase activity
Method in brief: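 Input and output libraries were sequenced on Illumina after a single in vitro selection round, run in triplicate on PCR-built, transcribed mutant libraries of each subunit of a heterodimeric triplet polymerase ribozyme. Selection annealed libraries to a biotinylated primer, the partner subunit and triplets, incubated them frozen at −7 °C, then gel-excised extended constructs for streptavidin-bead capture and RT-PCR. Genotypes with ≥10 input reads and ≥1 read per output were kept. Fitness is the logarithm, taken in base 2, of genotype enrichment divided by wild-type enrichment, using inverse-variance-weighted replicate averages.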

Variant | polymerase ribozyme fitness (log ratio)
G59U U148G | -3.83
G62C A106U C125U | -3.86
G58A C72A U82A A89G C116G U130G | ≤ -4.2
C57U G94U | -0.85
G59C G68A C96A C105A C125U U130G | ≤ -4.2
A60C C76U A107C | ≤ -4.2
G62C C85A C99G U151G | ≤ -4.2
G59U C79A G94U A119U U127G | ≤ -4.2
A60G G94U A137G U148A | ≤ -4.2
G59C G81C G84C | ≤ -4.2
U61A U144C | -2.19
A60C C76G | ≤ -4.2
U61G G74C C79U G88C U102G C105U U111G G126A U144A | ≤ -4.2
G62C A137U G143U U148G | ≤ -4.2
C57U A73C G83U U127C | ≤ -4.2
A60U C75A C76U G84A A89G A120U | ≤ -4.2
U61C C69U G70U G86U A107C | ≤ -4.2
A60G G117A | 0.434
A60U A73C C93G U139A | ≤ -4.2
G59U A91U C103A C125A G136A | ≤ -4.2
U61A G86C C95A | ≤ -4.2
G59C G86U C87A A91G A98G A110U C118G | ≤ -4.2
A60G C116U | 0.141
A60G G68U G80C U139A | ≤ -4.2

Variant | polymerase ribozyme fitness (log ratio)
G62C C63U C79A C85U A98U C99U C131A U135C U144A | ≤ -4.2
G58C U61A G74U U77G C79U G80C C87A | ≤ -4.2
U61A C108G C116A U139A | ≤ -4.2
G62U C96U | -1.14
C57U G59A G83C G84U C85A U101G G126A A142C | ≤ -4.2
G59C C76U A91C C95A C129A | ≤ -4.2
G62A G74C U135G | ≤ -4.2
A60C G86C G88A C105G | ≤ -4.2
G58C G68A G94U C96G | ≤ -4.2
C57U A115U A138C | ≤ -4.2
C57U A73G G84C C95A C118G | -2.62
G59C U78C G83A | -0.666
G62A G84A C87U C131G | ≤ -4.2
G62A C93G U130C | -3.01
G59C A110G | -3.79
G62A G68U U77C A115C A122U | ≤ -4.2
G59C G84A G112U C131A U134C | ≤ -4.2
G62C G71U G84U A150U G152C | ≤ -4.2
U61A G68C C79A U145G | ≤ -4.2
A60U A89C | -0.611
G58C C96A A115U G128U | ≤ -4.2
G59C A89U A91U U101C U144C | ≤ -4.2
A60G G67C | ≤ -4.2
A60C C93A | -3.64

Variant | polymerase ribozyme fitness (log ratio)
A60G C76G U78G U82C A142G | ≤ -4.2
G58U G100U A122U | ≤ -4.2
G59C G88C A91C G124U | ≤ -4.2
U61A C95U C125G A142C | ≤ -4.2
G62A A98U | -1.42
G58C C85U C96U A150C G152U | ≤ -4.2
G62A C87G U90A C96U C99U U148G | ≤ -4.2
G59A G84U A98G A115U | -3.58
G59C C69A C116G C125U | ≤ -4.2
G62A C85A U151C | ≤ -4.2
A60G C85G G94A | -0.0985
G59C C85G G136A C149G | ≤ -4.2
G58C U82C A89U C108G C114A C118U G140A | ≤ -4.2
G58C G80A C95U U127G C149G | ≤ -4.2
A60U C76U G86A G141A | -3.96
G58C G83U C85G | -3.33
G58C C72U U101G | 0.371
U61G C87A A150G | ≤ -4.2
G58A A64C C93U U134A | ≤ -4.2
U61C A98U C103G A115G C131U | ≤ -4.2
A60G C75G G81C G94U C103A A107U U111G | ≤ -4.2
U61A C105U | -1.02
G58A U82A A89U A119G A120U G126U | -0.897
G59U A60U C79U G81A C105U A107C C118G A150G | ≤ -4.2

Variant | polymerase ribozyme fitness (log ratio)
G58C U61A U78A C116U C149U | ≤ -4.2
G59A G83U G86A G133A | ≤ -4.2
G62A G84A C149G | ≤ -4.2
U61A A122G G140C | ≤ -4.2
C57U C85A G133C G136A | -1.86
A60U C79U C99U | ≤ -4.2
U61A C85U C87A C118G U134A | ≤ -4.2
G59U C96U A142G | -1.66
G58A C103A | -1.19
G58A U61A A91U | ≤ -4.2
A60C G100U C103G U109C G128A U134C | ≤ -4.2
U61C G94A G141A C149A | ≤ -4.2
U61A C125A | -2.73
G58A C116U | 0.457
A60G U61G C76U U102G A106C A147U | ≤ -4.2
A60U C85U U148C | -3.17
G59C G84A | -0.218
U61G A64C C75G C93U | ≤ -4.2
U61A A73G | -1.42
G59U C79G A91C A110U C149G G152U | ≤ -4.2
A60U C96U C116A G124A | ≤ -4.2
G62A A121G | -0.384
U61C A64G | ≤ -4.2
C57U A73C G94C A107G | ≤ -4.2

Variant | polymerase ribozyme fitness (log ratio)
G59A C118A | -0.536
G58U C93U G140A U151G | ≤ -4.2
G59C U82G C85A U102G | -4.09
A60C A73G C93U | ≤ -4.2
G58C G86U C105A | -2.89
G58A G88U C96U C118A C125A G133A | ≤ -4.2
G62A G81U C87G C93U U130C G140C U144G | ≤ -4.2
G59C G94A U101G A113C | ≤ -4.2
U61C C93A | ≤ -4.2
G58U C72U C87U C99G G141C | ≤ -4.2
A60G A73G G92U | 0.661
G59U U78G C79A C87U U109G A110U | -3.99
U61G G68A U78G U127A | ≤ -4.2
C57U C95U A142C U144G | ≤ -4.2
G58U G88C U130G | ≤ -4.2
G59A C114U G126A U146G | ≤ -4.2
G59A C93A U135C U146A | -3.8
G59A A147U | 1.25
A60G A91C C95U A110U C114U C118G A150U | ≤ -4.2
G59U G68C C75U C85G C118G | ≤ -4.2
G58C C72U G94U U102C U139A | ≤ -4.2
A60C A66U C76U G84U A91C C105U U144C | ≤ -4.2
A60C A66C C75G | ≤ -4.2
U61A C72U | -3.66

Variant | polymerase ribozyme fitness (log ratio)
A60C C105G | -3.44
G58C A60C A66U G92A A97U G133U G141C | ≤ -4.2
G59A C93G | -3.78
G59A C93A | -3.22
G58C C96G U101A C103A | ≤ -4.2
G59A G84A C85U A106G C114A A138G | ≤ -4.2
A60G C69G G80U G84U A106G U109A G133U G140A A150C | ≤ -4.2
G59C C99G G141U | -1.13
G58U A97G A98G G117U U146G | -0.542
G59U G83A A110C U145A | ≤ -4.2
G59A C85G G100A A115U U127G G141A | ≤ -4.2
C57U G86C G94C | ≤ -4.2
G58C G88U C93A A107G U130A | ≤ -4.2
U61A C75U C125A G128A A142U A147G | ≤ -4.2
G58A C63G G86U G94C A137C G141U U151C | ≤ -4.2
G58C U90A C99U | ≤ -4.2
C57U U78A G80A A138G U139G | ≤ -4.2
G59C G86U C95U | -2.13
C57U U61A A64C G94A A107C A138U | ≤ -4.2
C57U G74A C125U C149G | ≤ -4.2
G59U A98G | 0.162
U61A U135A G141C U148G C149G | ≤ -4.2
G59A C93U A150C | ≤ -4.2
G58A G83A G140U | -3.64

Variant | polymerase ribozyme fitness (log ratio)
G58C U61C G70C C76G C96U A138G G140U C149G | ≤ -4.2
G59C C93A C95A | -4.05
C57U U135G | -4.05
G59C A97U U139G | -0.518
G59C C99U A150C | ≤ -4.2
U61A G67A C76A G81A C85A | ≤ -4.2
U61C U104G G126C | -2.04
G62A | -0.367
G62C | -1.07
G62U | -0.546
G59C G92A | -2.89
G58U C129G | -2.47
G62U C95U U134G U135G | ≤ -4.2
A60G U77G G84U A91U | ≤ -4.2
G59U C99U U104G G128U U134A G136U A138G | ≤ -4.2
G58A C76A G80C C85U A89G U90C U101G C149A | ≤ -4.2
C57U C85G A142C A150G | ≤ -4.2
G59A C87U U101G G136C | -2.91
C57U A97G | -0.11
G58A G59U C99G G133A | ≤ -4.2
A60G A66C A107G G136C | ≤ -4.2
G59U A89U C95G | -2.27
C57U A91G | -2.92
